Source: PubChem BioAssay AID493208 (National Center for Advancing Translational Sciences (NCATS), 2011)
Out of some 44,000 compounds screened, about 340 (0.77%) were called active. Roughly 5% stayed inconclusive and do not appear here. Calls follow the shape of the dose curve; as a rule, active = well fitted inhibition curve with a large enough effect; inconclusive = small, poorly fitted or top-dose-only effect; inactive = flat fitted curve, though single readings scatter. The list shows a part of the results.

test: Acumen qHTS Assay for Inhibitors of the mTORC1 Signaling Pathway in MEF (Tsc2-/-, p53-/-) Cells: Sytravon; conditions: phospho-rpS6 immunofluorescence/PI, 24 h; series mostly up to 38.3 µM; activity change, negative = inhibition: at the top concentration;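 also: plate controls were DMSO for no effect and rapamycin for full effect; nearly all actives have a fitted effect of over 50% in size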
Procedure, shortened: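 Readout is phospho-S6 Alexa 488 signal normalized to PI per well, reported as % active cells with thresholds set from rapamycin (7.5 nM) and DMSO controls. Cells: Tsc2-/-, p53-/- MEFs, 24 hrs compound at 37 C; PI cell number serves as viability.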

Activity change, negative = inhibition, inactive:
COCCCNC(=O)c1c(NC(=O)Cc2coc3c(C)c(C)ccc23)sc2c1CCCC2 2.9%
COc1cccc(CNC(=O)CCS(=O)(=O)c2ccc3c(c2)oc(=O)n3C)c1 2.62%
CCC(Sc1nnc2c(n1)[nH]c1ccccc12)C(=O)Nc1nnc(C(C)C)s1 (stereo not given) -0.624%
CCCCOC(=O)c1c(N)n(-c2ccc(OC)cc2OC)c2nc3ccccc3nc12 -4.95%
Cc1ccc(CCNS(=O)(=O)c2cc(-c3cc(C)no3)ccc2C)cc1 -0.562%
O=C(NC1CC(=O)N(c2cccc(F)c2)C1)c1cccs1 (stereo not given) 1.14%
CCOc1ccc(C(=O)NCc2ccc3c(c2)CCN3C(=O)c2ccc(Cl)cc2)cc1 -1.64%
Cc1cccc(-n2ncc(C(=O)N3CCOCC3)c2C2CCN(C(=O)OC(C)(C)C)CC2)c1 -1.7%
CC(C)N(C(=O)Cn1cc(SCC(=O)Nc2ccccc2F)c2ccccc21)C(C)C -10.1%
CCc1ccc(OCC(=O)NC(Cc2c[nH]c3ccccc23)C(=O)O)cc1 (stereo not given) 0.892%
CC(C)C(=O)Nc1ccc2nc(SCC(=O)N3CCCC3)sc2c1 0%
CCCN(C(=O)c1cc2c(=O)oc3ccccc3c2s1)c1ccc(CC)cc1 -3.79%
Cc1ccccc1Nc1cc(C(=O)NCCCN2CCN(c3cccc(Cl)c3)CC2)c2ccccc2n1 2.17%
Cc1c(Cl)cccc1NC(=O)N1CCN(C(=O)c2nsc3ccccc23)CC1 0%
CCc1ccc(NC(=O)c2ccc(CN3CC(=O)N4CCCCC4C3=O)cc2)cc1 (stereo not given) -7.02%
Cc1ccc(C(C)C)c(OCCSc2nc(-c3ccccc3F)nc3cc(=O)[nH]n23)c1 3.34%
Cc1c(CCC(=O)NCCc2ccccc2)c(=O)oc2c(C)c(O)ccc12 2.08%
COc1cccc(-n2c(=O)c3c(C)c(C)sc3n(CC(=O)NCCc3ccc(OC)c(OC)c3)c2=O)c1 3.71%
COc1cccc(CNC(=O)c2cc(C)nc3c2c(C)nn3-c2ccc(C)cc2)c1 3.03%
COc1ccc(OC)c(NC(=O)CSc2ccc(-c3cccs3)nn2)c1 -9.31%
COc1cc(OC)c(NC(=O)C2CCN(S(=O)(=O)c3c(C)noc3/C=C/c3c(C)cc(C)cc3C)CC2)cc1Cl 2.23%
CN(Cc1ccccc1)C(=O)c1cn(C)c2ccc(S(=O)(=O)N3CCCCC3)cc2c1=O -13.2%
CC12CN3CC(c4ccccc4)(CN(C1)C3c1ccc(O)cc1)C2=O (stereo not given) -2.28%
CCn1c(C(=O)NCc2ccc(F)cc2)cc2oc3ccccc3c21 0.541%
Cn1c(=O)oc2cc(S(=O)(=O)NC(Cc3ccccc3)C(=O)Nc3ccc(F)cc3)ccc21 (stereo not given) -5.24%
CCOC(=O)c1c(NC(=O)C(C)Sc2cn(CCNC(=O)c3c(F)cccc3F)c3ccccc23)sc2c1CCC2 (stereo not given) -2.82%
COC(=O)c1c(NC(=O)C(C)Oc2ccc(Cl)c(C)c2)sc(C)c1C (stereo not given) 6.18%
Cc1ccc(-c2cc(C(=O)Nc3cc([N+](=O)[O-])ccc3C)no2)cc1F 2%
COc1ccc(OC)c(NS(=O)(=O)c2cc3c(cc2Cl)N(C(C)=O)CCO3)c1 0.585%
CCOc1ccc(NC(=O)CC2C(=O)N(c3ccc(F)cc3)C(=O)N2Cc2ccc(OC)c(OC)c2)cc1 (stereo not given) 1.4%
O=C(CSc1nc2cc(C(=O)NC3CCCC3)ccc2c(=O)n1CC1CCCO1)c1cccc(Cl)c1 (stereo not given) 0%
Cc1ccc(C)c2sc(NC(=O)c3ccc(S(=O)(=O)N4CCC(C)CC4)cc3)nc12 -10.6%
CCN1C(=O)c2ccccc2S(=O)c2ccc(C(=O)NCc3ccc(OC)cc3)cc21 (stereo not given) 2.51%
COc1ccc(OC)c(CCNC(=O)CS(=O)(=O)Cc2nc(-c3cccc(Cl)c3)oc2C)c1 7.54%
COc1ccc(CCNc2oc(/C=C/c3cc(OC)c(OC)c(OC)c3)nc2C#N)cc1OC 2.17%
CCOC(=O)c1ccc(N2C(=O)c3n[nH]c(-c4cccs4)c3C2c2ccc(OCC)cc2)cc1 (stereo not given) 0.593%
COc1ccccc1NC(=O)CSc1nnc(N)s1 0.154%
CN(C)c1ccc(CN(Cc2ccco2)C(=O)c2ccc(C(C)(C)C)cc2)cc1 -3.26%
Cc1ccc(-c2nc3nc(C)cc(N4CCN(c5cccc(C)c5C)CC4)n3n2)cc1 2.75%
CCOc1ccccc1NC(=O)NCc1ccc2c(c1)CCN2C(=O)c1ccccc1 0%
COc1ccc(/C=C\c2onc(C)c2S(=O)(=O)N2CCC(C(=O)Nc3ccc(F)cc3F)CC2)cc1 2.29%
O=C(NCc1ccccc1Cl)c1ccc2c(c1)NC(=O)C(CS(=O)(=O)Cc1ccc(F)cc1Cl)N2 (stereo not given) -5.78%
Cc1oc(-c2cccc(Cl)c2)nc1CSc1nncn2c1cc1occc12 -9.38%
O=C(NCCc1ccc(Cl)cc1)c1cnc2sc(N3CCOCC3)nn2c1=O 3.97%
COc1cc(OC)c(Nc2nc3ccccc3c3nncn23)cc1Cl -2.96%
CCc1ccc(CNC(=O)c2cc(=O)[nH]c3ccc(S(=O)(=O)N4CCCCC4)cc23)cc1 3.14%
COc1ccc(CC(=O)Nc2ccc3nc(Nc4ccc(OC)cc4)cc(C)c3c2)cc1 -19.6%
CCOC(=O)c1c(C)oc2nc(C)nc(Nc3ccc(C)c(Cl)c3)c12 2.7%
CCOC(=O)c1c(NC(=O)c2cc(C(C)C)on2)sc(C(C)=O)c1C 3.21%
Cc1c(Cl)ccc2sc(N3CCN(C(=O)C(C)C)CC3)nc12 -6.46%
CC(C)NC(=O)N1CCN(S(=O)(=O)c2ccc3c(ccn3C)c2)CC1 1.95%
Cc1ccc(C)c(NC(=O)CN(C)S(=O)(=O)c2ccc3c(c2)CCC(=O)N3)c1 -0.0271%
CCOC(=O)c1cc(-c2ccc(OC)cc2)n(CCC(=O)NCc2ccc(OC)cc2)c1C -0.185%
CCCS(=O)(=O)c1nc(S(=O)(=O)c2ccc(C)cc2)c(N(C)Cc2ccccc2)s1 -11.8%
Cc1ccccc1C(=O)Nc1nnc2n1CCS2 -1.26%
Cc1cc(C(=O)N2CCN(c3cccc(C)c3C)CC2)c2c(C)nn(-c3ccccc3)c2n1 -7.86%
CCOC(=O)c1c(C)[nH]c(C)c1S(=O)(=O)N1CCCC(C(=O)NCc2cccc(OC)c2)C1 (stereo not given) 3.74%
CCOC(=O)c1sc(NC(=O)C2c3ccccc3Oc3ccccc32)c(C#N)c1C -19.4%
CCCC(=O)NC(C)c1nc2ccccc2n1Cc1ccccc1 (stereo not given) 0.443%
COc1ccc(S(=O)(=O)N2CCCN(CC(=O)Nc3ccc(OC)cc3OC)CC2)cc1 1.51%
COc1ccccc1CNC(=O)CCC1N=C2c3ccccc3N=C(SCC(=O)Nc3ccc(N(C)C)cc3)N2C1=O (stereo not given) 2.81%
Cc1c(C(=O)N(C)C)sc2c1c(=O)n(-c1ccc(Cl)cc1)c(=O)n2Cc1ccccc1F -12.4%
Cc1cccc(OCC(=O)Nc2cc(-c3ccccc3F)nn2-c2ccccc2)c1 11.8%
COc1cc(NC(=O)N2CCC(CN3CCOCC3)CC2)cc(OC)c1OC -7.58%
CC(C)c1ccc(Nc2ncnc3onc(-c4ccc(F)cc4)c23)cc1 -0.758%
Cc1cc(Cl)ccc1NC(=O)Cn1nnc2sc(-c3ccccc3)cc2c1=O -7.62%
COc1ccc(OC)c2sc(N3CCN(C(=O)CCS(=O)(=O)c4ccc(F)cc4)CC3)nc12 -7.8%
Cc1nc2nc(SCC(=O)NC3CCCCC3)nn2c(C)c1Cc1ccccc1Cl -7.95%
COC(=O)c1ccc2c(c1)N(Cc1ccc(Cl)cc1)C(=O)c1ccccc1S2 -2.53%
COCCNc1nc2c(c(=O)n(Cc3cccc(Br)c3)c(=O)n2C)n1C 1.95%
COc1cccc(N2CCN(C(=O)c3cc4c(=O)oc5ccc(C)cc5c4s3)CC2)c1 1.24%
CCCCn1nc(NC(=O)c2cccc(Cl)c2)c2cc3cccc(C)c3nc21 8.43%
CCCn1c2ccccc2c2cnn(CC(=O)N3CCCC(C)C3)c(=O)c21 (stereo not given) -7.8%
CCc1ccccc1-n1c(C)nc2cc(C(=O)NCCc3ccc(Cl)cc3)ccc21 3.13%
Cc1ccc(CNC(=O)C2CCN(S(=O)(=O)c3cn(C)cn3)CC2)cc1 0%
COCCCNC(=O)CCc1c(C)nc2nc(-c3cc(OC)cc(OC)c3)nn2c1C 0.685%
CC(C)N(Cc1ccccc1)S(=O)(=O)c1ccc(-c2cc(C(F)(F)F)on2)s1 5.6%
CC(C)OCCCNC(=O)CN1C(=O)COc2ccc(S(=O)(=O)N3CCCCCC3)cc21 -3.24%
CCC(Oc1ccccc1)C(=O)Nc1cc(-c2cccc(C)c2)nn1-c1ccccc1 (stereo not given) -9.67%
COc1ccc(-n2c(C)c(C(C)=O)c3cc(OC(=O)COc4ccccc4)ccc32)cc1 -21.4%
Cc1cc(-c2ccc(C)c(S(=O)(=O)NCc3cccc(Br)c3)c2)on1 -8.19%
Cc1cc(C)cc(OCC(=O)N(Cc2cccs2)c2ccc(Cl)cc2)c1 0.885%
CCOCCCNC(=O)c1cnc2sc(N3CCCCC3)nn2c1=O 9.49%
Fc1ccc(-c2nn(-c3ccccc3Cl)c3c2cnc2ccccc23)cc1 -12.5%
Cc1ccc2onc(CC(=O)N3CCN(c4cc(Cl)ccc4C)CC3)c2c1 -10.9%
COc1ccc(-n2nc(C(=O)N3CCN(c4cccc(C)c4C)CC3)c3c4ccccc4n(C)c3c2=O)cc1Cl 1.36%
Cc1ccc(CNC(=O)Cc2c(C)c3c(cc(C)c4c(C)coc43)oc2=O)cc1 1.49%
COc1cccc(CNC(=O)Cn2ncn3nc(-c4cccs4)cc3c2=O)c1OC -0.865%
O=C(c1ccc2c(c1)N(Cc1ccc(F)cc1)C(=O)c1ccccc1S2(=O)=O)N1CCCC1 0.218%
CCC(=O)N1CCCc2cc(S(=O)(=O)N3CCC(C(=O)NC4CCCCC4)CC3)ccc21 -4.93%
COc1ccccc1Cn1c(CNS(=O)(=O)c2ccc(C(C)C)cc2)nc2cccnc21 -15.5%
COc1ccc(CNC(=O)c2nc(SCc3ccccc3F)ncc2Cl)cc1 -10.8%
CC(NC(=O)c1ccc2c(c1)CCN2S(=O)(=O)c1ccccc1)c1ccccc1 (stereo not given) 2.04%
Fc1ccccc1Cc1cn2cc(-c3ccc(Cl)cc3)nc2s1 -0.309%
COc1ccccc1NC(=O)c1oc2ccccc2c1NC(=O)c1cccc(OC)c1OC -13.5%
